Laboratory results published in ChEMBL document CHEMBL4888484, “Replenishing the malaria drug discovery pipeline: Screening and hit evaluation of the MMV Hit Generation Library 1 (HGL1) against asexual blood stage Plasmodium falciparum ,using a nano luciferase reporter read-out” (2022).
Several values for one entry are separate records, joined by “and”; a condition that tells them apart may be missing. Equal entries are not always repeated. The whole screen tested about 150,000 compounds, of which about 540 (0.36%) showed an effect of 50% or more. Some of the results follow.

System: Plasmodium falciparum
Assay: Primary screen in NF54 nanoGlo assay, in single point, at 2uM, 72h; a lower Z score goes with more inhibition
Assay type: functional, Erythrocyte
Conditions: timepoint 72 hour

SMILES	% Inhibition [%]	Z score	% Inhibition (2 µM)	Z score (2 µM)
COc1ccc(C(C)NC2CCS(=O)(=O)C2)cc1Cn1cccn1 (configuration not stated)	-2	0.31		
O=C(c1nn(Cc2ccccc2)c(=O)c2ccccc12)N1CCOCC1	-12	1.2		
CCn1cc(CN2CCCC23CCN(c2ccc(C(F)(F)F)cn2)CC3)cc1C#N	-17	2.22		
CCc1noc2nc(C)nc(NC3CCCCCC3)c12	4	-0.41		
CC[C@H]1COCCN1C(=O)Nc1cccc(N(C)CC)c1	4	-0.58		
COc1ccc(N2CCN(C(=O)Cc3ccc(S(=O)(=O)N4CCOCC4)s3)CC2)cc1	2	-0.2		
CN(CCc1noc(C2CC2)n1)C(=O)Nc1cccc2[nH]ncc12	7	-0.97		
COc1cncc(O[C@H]2CCCN(C(=O)Cn3ncccc3=O)C2)n1	-14	2.34		
CCNC(=O)N(CCOC)Cc1csc(COc2cccc3ccccc23)n1	-3	0.48		
Cc1nc2c([nH]1)CN(Cc1cc(CC(C)C)on1)CC2	-5	0.65		
Cn1nc(C(=O)N2CCN(S(=O)(=O)c3ccccc3)CC2)ccc1=O	6	-1.09		
Cn1nccc1CS(=O)(=O)c1ccc(F)c(F)c1	36	-5.18		
CC(C)NC(=O)CCN(c1nc(-c2cccc(Br)c2)nc2ccccc12)C1CC1	-15	2.09		
COc1ccc([C@H]2C[C@@H](C(F)(F)F)n3ncc(C(=O)NCCc4ccccc4)c3N2)cc1	-12	1.9		
COc1ccccc1N(C)CCC(=O)NC(N)=O	-1	0.15		
CO[C@H]1CCN(C(=O)c2cnn3ccc(N)cc23)C1	-5	0.65		
COc1ccc2c(c1)CCC[C@@]2(O)CNS(=O)(=O)CCC(F)(F)F	14	-1.84		
O[C@]1(c2ccccc2)C[n+]2ccccc2N1Cc1ccccc1			-12% and -7%	2.06 and 1.3
CCc1c(C(=O)N(C)Cc2cc(C#N)cs2)cnn1CCC(C)C	-12	1.32		
COc1nc2c(cc1CNC(=O)[C@@H]1CN(C)C(=O)N1)C(=O)N(C1CCCC1)C2	-4	0.74		
COc1c(F)cc(CN2CC[C@H](CNC(=O)C(F)F)C2)cc1F	0	0		
CCCN(C)C(=O)Cc1cn(C)c2ncccc12	-6	0.68		

SMILES	% Inhibition [%]	Z score	% Inhibition (2 µM)	Z score (2 µM)
CN1C(=O)[C@@H](c2ccccc2)CC12CCN(Cc1cccc3nonc13)CC2	-6	0.93		
COc1cccc(CNC(=O)CN(C)CCOc2ccc(O)cc2)c1	-10	1.09		
O=C(c1c(F)cccc1F)N1CCN(c2cc(-n3cccn3)ncn2)CC1	0	0.03		
Cn1nc(C(=O)NC2CC3CC2C2CCCC32)ccc1=O (configuration not stated)	-12	1.14		
Cc1ccc(C(=O)N[C@@H](CC(C)C)c2nnc3n2CCNCC3)c(F)c1	-1	0.19		
CC[C@@H](CNC(=O)Nc1ccc(N2CCOCC2)nc1)N1CCCC1	-4	0.67		
CCOc1c(Br)cc(Br)cc1CNCCNCCO	0	-0.02		
FC(F)(F)CN1CCC(NCC2CCOC2c2ccccc2)C1 (configuration not stated)	-11	1.53		
O=C(Nc1nc(-c2ccc3c(c2)OCO3)cs1)[C@@H]1COc2ccccc2O1	-6	1.01		
O=C(C[C@H]1CCOC2(CCN(C(=O)NC3CCCCC3)CC2)C1)N1CCOCC1	-4	0.51		
OCCOc1cncc(-c2ccc3c(c2)CCN3)c1	-7	0.8		
CCCCCNC(=O)c1cnn(C)c1N	-4	0.48		
CC(C)(NC(=O)CC1CCC(F)(F)CC1)c1nc2ccccc2s1	37	-5.05		
Cc1ccc(-n2nc(C)c(S(=O)(=O)c3ccccc3)c2OC(=O)CCc2ccccc2)c(C)c1	3	-0.48		
COc1ccc(N(Cc2c(C)noc2C)Cc2c(C)noc2C)cc1	-5	0.44		
Cc1nn(C)cc1CNC(=O)c1cc(NC(=O)CC2CCCC2)cc2nc([C@@H]3CCCO3)n(C)c12	9	-1.24		
Cc1cc(Cl)ccc1NC(=O)N1CC[C@H](c2nnc3n2CCN(C)CC3)C1	27	-3.65		
O=C(Cn1nc2c(N3CCCCCC3)nccn2c1=O)Nc1ccc2c(c1)OCCO2	-15	1.48		
Cc1ccc(Cl)cc1NC(=O)Cc1c(C)nc2nc(C3CCCCC3)nn2c1C	-6	0.7		
Cc1cccc2[nH]c(-c3cn(C)nc3-c3ccc4c(c3)OCCO4)nc12	-2	0.44		
Cc1ccc(C)c(NC(=O)CC(=O)N2CCc3[nH]nc(C(C)C)c3C2)c1	-8	1.42		
Cc1nc(NCc2cccc(-c3cccnc3)c2)n(C)n1	-8	0.81		

SMILES	% Inhibition [%]	Z score	% Inhibition (2 µM)	Z score (2 µM)
c1cn(C2CN(c3ccnc(C4CC4)n3)C2)nn1	-2	0.44		
CN1CC[C@H](N(C)C(=O)Nc2ccc(C(F)(F)F)cc2)C1=O	-2	0.28		
c1ccc(OC2CCN(c3cc(NCC4CC4)ncn3)CC2)cc1	-11	0.9		
O=C(Nc1ccc2oc(-c3cc(F)ccc3Br)nc2c1)c1cc[n+]([O-])cc1	-3	0.74		
C[C@H](NC(=O)Nc1ccc(F)cc1)C(C)(C)C	-12	1.77		
COc1cc(Cl)ccc1-c1nc(-c2ccc3c(c2)ncn3CCC(=O)N2CCCC2)no1	-24	3.15		
CN(C)c1ccc(C(=O)N2CCc3ccc(Br)cc32)nn1	-20	1.81		
Cc1c(C(=O)N2CCC3(CCOCC3)C2)cnn1C(C)C	-2	0.27		
CC(C)(C)OC(=O)N[C@@H]1CCCN(Cc2nc(-c3ccco3)no2)C1	-11	1.1		
Fc1ccccc1COc1ccc(Cl)cc1CNC1CCCCCCC1	-2	0.26		
O=C(CC1CCC1)NCC(=O)c1ccco1	-7	0.95		
O=C(Nc1ccccc1)N1CCN2C(=O)c3ccccc3[C@]12c1ccccc1	3	-0.44		
CN(C)c1noc(CN2CCOCc3ccccc32)n1	-28	3.27		
Cn1ncnc1Cn1c(COc2ccccc2)nc2ccccc21	-3	0.55		
CC(=O)N1CCN(C(=O)c2csc(NC(=O)c3ccccc3F)n2)CC1	-4	0.49		
COc1ccc(-c2nc3nc(C)c(CC(=O)Nc4ccc(Br)cc4)c(C)n3n2)cc1	-19	1.82		
O=C(Nc1ccccc1)N1CCCN(C2CCC2)CC1	-8	1.32		
Cc1nc(NCc2cnc(-c3ccccc3)s2)sc1-c1ccn(Cc2ccsc2)n1	9	-1.21		
C[C@@H]1CN(Cc2cn(C)nc2-c2ccccc2Cl)CC(C(N)=O)O1 (some centres not stated)	-6	1.1		
O=S(=O)(c1cccc2nonc12)N1CCCC1	-2	0.38		
Cc1nc2ccccn2c1CNC(=O)[C@H]1CCO[C@@H]1c1ccccc1	-4	0.56		
Cc1n[nH]c(C)c1[C@H](C)N(C)C(=O)CC1CCN(C(C)C)CC1	-5	0.99		

SMILES	% Inhibition [%]	Z score	% Inhibition (2 µM)	Z score (2 µM)
Cc1ccn2c(C(=O)N[C@H]3C[C@@H]4CC[C@H]3C4)nnc2n1	-22	1.91		
CC1(CNC(=O)c2cccs2)CCOCC1	1	-0.14		
Cc1cc(C(F)(F)F)cc(N2CCO[C@@H](CN)C2)n1	-10	1.74		
Cc1ccc2oc(N3CCC[C@@H]3CN3CCCC3)nc2c1	-12	1.65		
CC(C)n1ccnc1CN1CCOc2cc(N(C)C)ccc21	-7	0.93		
COc1ccnc(N(Cc2ccccc2)CC2(O)CCCC2)n1	-1	0.17		
Cc1nnc(-c2ccc(C(=O)N3CCN(c4cnccn4)CC3)cc2)[nH]1	-17	2.07		
Cc1cccc(Nc2nnc(CC(=O)Nc3cc(Cl)cc(Cl)c3)s2)c1	-4	0.52		
CCNC(=O)N[C@H]1CCc2cc(C(=O)OC)ccc2NC1=O	3	-0.61		
C[C@H](N)c1ncc(Br)cn1	-3	0.52		
N[C@@H](CO)c1cccc(Cl)c1Cl	5	-0.77		
O=C(N[C@@H]1CCCC[C@H]1NC(=O)C1CCN(C(=O)c2ccc(C(F)(F)F)cc2)CC1)c1ccccc1	-4	0.41		
CCC(=O)N1CCc2sc(C(=O)NC3CCN(Cc4ccccc4)CC3)cc2C1	41	-5.88		
CCc1nccn1CCC(=O)N[C@H]1COC[C@@H]1OC	8	-0.99		
CCCc1cc(C(=O)N2CC[C@]3(OC)CC[C@@H](OCCO)C[C@H]23)no1	-6	0.79		
C#CCN(CC1CC1)C(=O)c1cnn2cc(Br)cnc12	-6	0.6		
CCOc1ccc(CCN2C(=O)CC[C@@]2(C)C(=O)NCc2ccccc2)cc1OCC	-2	0.2		
O=C(NCCc1cn2c(n1)CCCC2)c1ccncc1	-7	1.47		
Cc1[nH]nc(CN(C)CCN(C)C2CCCC2)c1Cl	-3	0.47		
CCn1c(COC(=O)c2cnc(C)cn2)nc2cc(S(=O)(=O)N(C)C)ccc21	-15	2.38		
